In the supplement of paper PMC9446081:
Screen size: about 39,000 compounds; about 220 (0.56%) showed activity. This is one part of the list.

Tested on: Escherichia coli K-12 BW25113
Experiment: relative growth (OD600 normalised to plate interquartile mean) (fraction); higher = less growth inhibition, active = 0.2 or less
Conditions: 50 µM; LB; incubation time: overnight (16-24 h)
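Further: static incubation at 37 °C against the wild-type strain, values averaged over two biological replicates.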

SMILES	relative growth
Cc1ccc(S(=O)(=O)N(C)C[C@@H]2OCCCC[C@@H](C)Oc3ccc(NC(=O)Nc4ccc(C(F)(F)F)cc4)cc3C(=O)N([C@@H](C)CO)C[C@@H]2C)cc1	inactive: 1.02
Cc1ccc(S(=O)(=O)N(C)C[C@@H]2Oc3ccc(NS(C)(=O)=O)cc3CC(=O)N([C@@H](C)CO)C[C@@H]2C)cc1	inactive: 1.02
C[C@@H]1CN([C@@H](C)CO)C(=O)CCCn2nncc2CO[C@H]1CN(C)C(=O)Nc1cccc(Oc2ccccn2)c1	inactive: 1.01
O=C1O[C@H](c2ccccc2)[C@H](c2ccccc2)N2[C@H]1[C@@H](C(=O)NC[C@H](O)c1ccccc1)[C@]1(C(=O)Nc3ccc(C#CC4(O)CCCCCC4)cc31)[C@H]2c1ccc(O)cc1	inactive: 1
COc1ccc(NC(=O)Nc2ccc3c(c2)CC(=O)N([C@H](C)CO)C[C@@H](C)[C@@H](CN(C)S(=O)(=O)c2c(C)noc2C)O3)cc1	inactive: 0.969
O=C(CC(=O)N1CCOCC1)N1CCOCC1	inactive: 0.991
C[C@@H]1CN([C@H](C)CO)S(=O)(=O)c2ccc(C#CC3CC3)cc2O[C@H]1CN(C)Cc1cccc(F)c1	inactive: 1.03
Cc1cc(O)cc(=O)o1	inactive: 1.12
C[C@@H]1CN([C@@H](C)CO)C(=O)c2cccc(NC(=O)c3ccncc3)c2O[C@H]1CN(C)S(=O)(=O)c1ccc(F)cc1	inactive: 0.966
C[C@H]1CN([C@@H](C)CO)C(=O)c2cc(C#CCN(C)C)cnc2O[C@@H]1CN(C)Cc1ccc(C(=O)O)cc1	inactive: 0.998
Cc1ccc(N2C(=O)c3ccccc3[C@](C)(C(=O)NCCN3CCOCC3)[C@@H]2c2ccc(CO)cc2)nc1	inactive: 1.01
O=C(CCCCC(=O)N/N=C/[C@H](O)[C@@H](O)[C@@H](O)[C@H](O)CO)NO	inactive: 0.979
C[C@H](CO)N1C[C@H](C)[C@H](CN(C)CC2CCCCC2)Oc2ccc(NC(=O)Cn3cnnn3)cc2C1=O	inactive: 0.999
COc1ccc(NC(=O)Nc2ccc3c(c2)C(=O)N([C@H](C)CO)C[C@H](C)[C@H](CN(C)C(=O)Cc2ccccc2)OCCCC[C@H](C)O3)cc1	inactive: 1.01
Cc1noc(C)c1S(=O)(=O)Nc1ccc2c(c1)CC(=O)N([C@H](C)CO)C[C@@H](C)[C@H](CN(C)Cc1ccccc1)O2	inactive: 0.984
C[C@H](CO)N1C[C@H](C)[C@H](CN(C)C(=O)Nc2cccc3ccccc23)Oc2ccc(NC(=O)Nc3ccc(C(F)(F)F)cc3)cc2CC1=O	inactive: 0.97
C[C@H]1CN([C@@H](C)CO)S(=O)(=O)c2ccc(-c3ccc(C(=O)N(C)C)cc3)cc2O[C@H]1CN(C)C(=O)C1CC1	inactive: 1
Cc1ccc(-n2nnc(C(N)=O)c2C)cc1	inactive: 0.949
C[C@@H]1CCCCO[C@H](CN(C)Cc2ccc(C(F)(F)F)cc2)[C@@H](C)CN([C@@H](C)CO)C(=O)c2cc(NC(=O)Nc3cccc4ccccc34)ccc2O1	inactive: 0.916
C[C@H]1CCCCO[C@H](CN(C)C(=O)NC2CCCCC2)[C@@H](C)CN([C@@H](C)CO)C(=O)c2cc(NS(=O)(=O)c3ccc(F)cc3)ccc2O1	inactive: 1.01

SMILES	relative growth
C[C@@H]1CN([C@H](C)CO)C(=O)c2cccc(NS(=O)(=O)c3cn(C)cn3)c2O[C@H]1CN(C)CC1CC1	inactive: 1.01
C[C@H](CO)N1C[C@H](C)[C@@H](CN(C)C(=O)CN(C)C)Oc2ncc(C#CC(C)(C)O)cc2C1=O	inactive: 1.04
C[C@H](CO)N1C[C@H](C)[C@@H](CN(C)S(=O)(=O)c2ccc(Cl)cc2)OCc2ccccc2-c2c(n(C)c3ccccc23)C1=O	inactive: 1
CO[C@@H]1CN(C)C(=O)c2ccc(NC(=O)c3ccc(F)cc3)cc2OC[C@H](C)N(C(=O)CN(C)C)C[C@@H]1C	inactive: 1
CC1(C)OC(=O)C2(C(=O)O1)[C@@H](c1ccc(-c3ccc(C(F)(F)F)cc3)cc1)CC(=O)C[C@H]2c1ccccc1	inactive: 1.01
Cc1noc(C)c1S(=O)(=O)Nc1ccc2c(c1)C(=O)N([C@H](C)CO)C[C@@H](C)[C@@H](CN(C)Cc1ccc3c(c1)OCO3)O2	inactive: 0.999
C[C@@H]1CN([C@@H](C)CO)C(=O)c2cc(NS(=O)(=O)c3ccc(F)cc3)ccc2O[C@@H](C)CCCCO[C@@H]1CN(C)S(=O)(=O)c1ccc(Cl)cc1	inactive: 1.03
COc1ccc([C@@H]2CC=CC[C@H](C)Oc3ccccc3C(=O)N(C)[C@@H](Cc3ccccc3)C(=O)N2)c(OC)c1	inactive: 1.01
O=C(O)CCSc1n[nH]c(=O)[nH]c1=O	inactive: 0.955
Cc1ccc(S(=O)(=O)N(C)C[C@H]2OCCCC[C@H](C)Oc3ccc(NS(=O)(=O)c4ccc(F)cc4)cc3C(=O)N([C@@H](C)CO)C[C@H]2C)cc1	inactive: 0.955
CSC1=NCCN1	inactive: 1.01
C#CC1(OC(C)=O)CCC2C3CCC4=CC(OC(C)=O)CCC4C3CCC21C (centres undefined)	inactive: 0.962
CN1C(=O)c2cc(NC(=O)Cc3cccs3)ccc2OC[C@H]2O[C@H](CC(=O)NCCCN3CCOCC3)CC[C@@H]21	inactive: 0.998
Cc1csc2ccc(F)cc12	inactive: 1.02
COc1ccc([Si](C)(C)[C@H]2[C@H](CC(=O)N3CCC[C@H]3CO)O[C@@]3(C(=O)N(Cc4cccc(N5CCCCC5=O)c4)c4ccccc43)[C@@H]2C)cc1	inactive: 1.02
COc1ccc2[nH]c(S(=O)Cc3ncc(C)c(OC)c3C)nc2n1 (centres undefined)	inactive: 1.11
COc1ccc(S(=O)(=O)N2C[C@H](O)COC[C@H]3O[C@@H](CC(=O)NCCN4CCCCC4)CC[C@@H]32)cc1	inactive: 0.963
O=C(CN1CCOCC1)N[C@H]1CC[C@@H](CCNC(=O)Nc2cc(F)ccc2F)O[C@H]1CO	inactive: 0.975
C[C@@H]1CN([C@H](C)CO)C(=O)c2cc(NC(=O)c3ccncc3)ccc2O[C@@H](C)CCCCO[C@H]1CN(C)Cc1ccc(C(F)(F)F)cc1	inactive: 1
C[C@H]1CCCCO[C@H](CN(C)S(=O)(=O)c2ccc(Cl)cc2)[C@@H](C)CN([C@@H](C)CO)C(=O)c2cc(NS(=O)(=O)c3ccc(Cl)cc3)ccc2O1	inactive: 1.02

SMILES	relative growth
CCS(=O)(=O)Nc1ccc2c(c1)C(=O)N(C)[C@@H]1CC[C@H](CC(=O)N[C@H]3CCN(Cc4ccccc4)C3)O[C@@H]1CO2	inactive: 1.01
C[C@@H]1CN([C@@H](C)CO)C(=O)c2cc(NC(=O)Nc3ccc(C(F)(F)F)cc3)ccc2O[C@@H](C)CCCCO[C@H]1CN(C)C(=O)Nc1ccccc1	inactive: 0.985
CNC[C@@H]1OCCCC[C@@H](C)Oc2ccc(NC(=O)Nc3ccc(C(F)(F)F)cc3)cc2C(=O)N([C@H](C)CO)C[C@H]1C	inactive: 0.95
CC(C)CN1C(=O)[C@@]2(c3ccc([N+](=O)[O-])cc3)CC(=O)N(CC34CC5CC(CC(C5)C3)C4)[C@@H]2c2ccc(CO)cc21	inactive: 1.01
O=C(C[C@@H]1CC[C@@H]2[C@H](COC[C@@H](O)CN2S(=O)(=O)c2ccc(Cl)cc2)O1)NCCN1CCCC1	inactive: 1
C[C@@H]1CN([C@@H](C)CO)C(=O)c2cccc(NC(=O)C3CC3)c2O[C@@H]1CN(C)Cc1ccc(Oc2ccccc2)cc1	inactive: 1.03
C[C@@H]1CCCCO[C@H](CN(C)CC2CC2)[C@H](C)CN([C@@H](C)CO)C(=O)c2cc(NC(=O)Nc3ccc(F)cc3)ccc2O1	inactive: 1.05
C[C@H](CO)N1C[C@H](C)[C@@H](CN(C)C(=O)c2ccccc2)OCCCC[C@H](C)Oc2ccc(NS(=O)(=O)c3ccc(F)cc3)cc2C1=O	inactive: 0.98
C[C@H](CO)N1C[C@H](C)[C@H](CN(C)S(=O)(=O)c2ccc(Cl)cc2)OCCCC[C@H](C)Oc2ccc(NC(=O)Nc3ccc(F)cc3)cc2C1=O	inactive: 0.991
CCN1CCCC1CNC(=O)c1cc(S(=O)(=O)CC)c(N)cc1OC (centres undefined)	inactive: 0.797
C[C@@H]1CN([C@H](C)CO)C(=O)Cc2cc(NC(=O)Nc3cccc4ccccc34)ccc2O[C@@H]1CN(C)Cc1ccncc1	inactive: 0.976
COc1ccccc1S(=O)(=O)N[C@@H]1CC[C@H](CCNC(=O)C2CCOCC2)O[C@@H]1CO	inactive: 0.996
Cc1ccc(S(=O)(=O)Nc2cccc3c2O[C@H](CN(C)Cc2ccc(C(F)(F)F)cc2)[C@H](C)CN([C@H](C)CO)C3=O)cc1	inactive: 1
C[C@@H]1CN([C@@H](C)CO)C(=O)c2cc(NC(=O)CCC(F)(F)F)ccc2O[C@@H](C)CCCCO[C@@H]1CN(C)S(=O)(=O)c1ccccc1	inactive: 1.02
Cc1cc(C(=O)Nc2cccc3c2O[C@@H](CN(C)Cc2ccccc2)[C@@H](C)CN([C@@H](C)CO)C3=O)n(C)n1	inactive: 0.951
CC(=O)O[C@@H]1[C@@H](O)C[C@@]2(C)[C@@H](CC[C@@H](C)[C@@]23Cc2c(O)cc4c(c2O3)CN([C@@H](CCC(=O)O)C(=O)O)C4=O)C1(C)C	inactive: 1.02
CCCC(=O)Nc1ccc2c(c1)OC[C@@H](C)N(Cc1cc(-c3ccccc3)on1)C[C@@H](C)[C@H](OC)CN(C)C2=O	inactive: 1
CO[C@@H]1CN(C)C(=O)c2cc(NC(=O)C3CC3)ccc2OC[C@@H](C)N(C(=O)Cc2ccccn2)C[C@H]1C	inactive: 0.973
COc1cccc(S(=O)(=O)N(C)C[C@H]2Oc3cc(C#CCN(C)C)ccc3S(=O)(=O)N([C@@H](C)CO)C[C@H]2C)c1	inactive: 1.04
